Residue numbers refer to the chain shown, from its start. This is one part of the list.
T1: RBFOX1 RRM RbFoxmut (Fox-RRM*) (Homo sapiens, UniProt Q9NWB1 109-208, R118D;E147R;N151S;E152T)
T1 sequence: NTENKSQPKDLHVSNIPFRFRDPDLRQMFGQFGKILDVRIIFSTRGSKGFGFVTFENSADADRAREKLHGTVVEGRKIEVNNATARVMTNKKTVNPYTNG

B1: AAUAGGU (DNA:RNA)
RNA: GGGAGACCGGAAUUCAGAUUGUCCAAUAGGUUUAAAUCCCGUCGUAGCCACCA
DNA 1: CAATCTGAATTCCGGTCTCCC
DNA 2: TGGTGGCTACGACGGGATT
B2: UGUAUUC (DNA:RNA)
RNA: B1 RNA with A25U, A26G, G29U, G30U, U31C
DNA 1: CAATCTGAATTCCGGTCTCCC
DNA 2: TGGTGGCTACGACGGGATT
B3: AUUAGGA (DNA:RNA)
RNA: B1 RNA with A26U, U31A
DNA 1: CAATCTGAATTCCGGTCTCCC
DNA 2: TGGTGGCTACGACGGGATT
B4: CGUUGCC (DNA:RNA)
RNA: B1 RNA with A25C, A26G, A28U, G30C, U31C
DNA 1: CAATCTGAATTCCGGTCTCCC
DNA 2: TGGTGGCTACGACGGGATT
B5: CCUCGAC (DNA:RNA)
RNA: B1 RNA with A25C, A26C, A28C, G30A, U31C
DNA 1: CAATCTGAATTCCGGTCTCCC
DNA 2: TGGTGGCTACGACGGGATT
B6: UAUGUAU (DNA:RNA)
RNA: B1 RNA with A25U, A28G, G29U, G30A
DNA 1: CAATCTGAATTCCGGTCTCCC
DNA 2: TGGTGGCTACGACGGGATT
B7: GGCAGGC (DNA:RNA)
RNA: B1 RNA with A25G, A26G, U27C, U31C
DNA 1: CAATCTGAATTCCGGTCTCCC
DNA 2: TGGTGGCTACGACGGGATT
B8: GCUAUCU (DNA:RNA)
RNA: B1 RNA with A25G, A26C, G29U, G30C
DNA 1: CAATCTGAATTCCGGTCTCCC
DNA 2: TGGTGGCTACGACGGGATT
B9: UUUUGCA (DNA:RNA)
RNA: B1 RNA with A25U, A26U, A28U, G30C, U31A
DNA 1: CAATCTGAATTCCGGTCTCCC
DNA 2: TGGTGGCTACGACGGGATT
B10: AGGGAGC (DNA:RNA)
RNA: B1 RNA with A26G, U27G, A28G, G29A, U31C
DNA 1: CAATCTGAATTCCGGTCTCCC
DNA 2: TGGTGGCTACGACGGGATT
B11: GAUACCG (DNA:RNA)
RNA: B1 RNA with A25G, G29C, G30C, U31G
DNA 1: CAATCTGAATTCCGGTCTCCC
DNA 2: TGGTGGCTACGACGGGATT
B12: UAACUGG (DNA:RNA)
RNA: B1 RNA with A25U, U27A, A28C, G29U, U31G
DNA 1: CAATCTGAATTCCGGTCTCCC
DNA 2: TGGTGGCTACGACGGGATT
B13: UCGUGUU (DNA:RNA)
RNA: B1 RNA with A25U, A26C, U27G, A28U, G30U
DNA 1: CAATCTGAATTCCGGTCTCCC
DNA 2: TGGTGGCTACGACGGGATT
B14: AUACGAA (DNA:RNA)
RNA: B1 RNA with A26U, U27A, A28C, G30A, U31A
DNA 1: CAATCTGAATTCCGGTCTCCC
DNA 2: TGGTGGCTACGACGGGATT
B15: UGGCAUA (DNA:RNA)
RNA: GGGAGACCGGAAUUCAGAUUGUCCUGGCAUAUUAAAUCCCGUCGUAGCCACCA
DNA 1: CAATCTGAATTCCGGTCTCCC
DNA 2: TGGTGGCTACGACGGGATT
B16: CGAUGGC (DNA:RNA)
RNA: B1 RNA with A25C, A26G, U27A, A28U, U31C
DNA 1: CAATCTGAATTCCGGTCTCCC
DNA 2: TGGTGGCTACGACGGGATT
B17: AAGACCG (DNA:RNA)
RNA: B1 RNA with U27G, G29C, G30C, U31G
DNA 1: CAATCTGAATTCCGGTCTCCC
DNA 2: TGGTGGCTACGACGGGATT
B18: AAAAACC (DNA:RNA)
RNA: B1 RNA with U27A, G29A, G30C, U31C
DNA 1: CAATCTGAATTCCGGTCTCCC
DNA 2: TGGTGGCTACGACGGGATT
B19: GCAAACG (DNA:RNA)
RNA: B1 RNA with A25G, A26C, U27A, G29A, G30C, U31G
DNA 1: CAATCTGAATTCCGGTCTCCC
DNA 2: TGGTGGCTACGACGGGATT
B20: CAUUUGU (DNA:RNA)
RNA: B1 RNA with A25C, A28U, G29U
DNA 1: CAATCTGAATTCCGGTCTCCC
DNA 2: TGGTGGCTACGACGGGATT

These binders were tested against T1, RBFOX1 RRM RbFoxmut (Fox-RRM*) (assay: EMSA; HiTS-Eq, 1 nM pool, 10 min; buffer printed only for the single-RNA assays: 10 mM Tris pH 7.5, 150 mM NaCl, 3.4 mM EDTA, 0.001% NP-40, 30 C). Conditions: tags: His6 N-terminal (pET28a); label: 5' 32P.
Outline: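 Relative association constants, normalised to the cognate motif, were derived by comparing read counts of each RNA species with those of the control reaction. The RNA sequenced was the free fraction, separated by 8% native PAGE after a 10 min equilibration in 50 µL of 1 nM 5′-radiolabelled RNA (7 randomized nucleotides) with increasing concentrations of purified wild-type or mutant RbFox RRM.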

| Binder | binding signal |
| --- | --- |
| B1 | 0.105 KA relative to UGCAUGU |
| B2 | 0.207 KA relative to UGCAUGU |
| B3 | 0.0686 KA relative to UGCAUGU |
| B4 | 0.254 KA relative to UGCAUGU |
| B5 | 0.0587 KA relative to UGCAUGU |
| B6 | 0.163 KA relative to UGCAUGU |
| B7 | 0.0452 KA relative to UGCAUGU |
| B8 | 0.0809 KA relative to UGCAUGU |
| B9 | 0.206 KA relative to UGCAUGU |
| B10 | 0.11 KA relative to UGCAUGU |
| B11 | 0.0736 KA relative to UGCAUGU |
| B12 | 0.0835 KA relative to UGCAUGU |
| B13 | 0.154 KA relative to UGCAUGU |
| B14 | 0.123 KA relative to UGCAUGU |
| B15 | 0.127 KA relative to UGCAUGU |
| B16 | 0.101 KA relative to UGCAUGU |
| B17 | 0.0856 KA relative to UGCAUGU |
| B18 | 0.0505 KA relative to UGCAUGU |
| B19 | 0.0816 KA relative to UGCAUGU |
| B20 | 0.145 KA relative to UGCAUGU |
